Our source for the binding signal values is article PMC9911399, “Two distinct binding modes provide the RNA-binding protein RbFox with extraordinary sequence specificity”.

The chains are these.
T1: RBFOX1 RRM (Homo sapiens, UniProt Q9NWB1 109-208)
T1 sequence: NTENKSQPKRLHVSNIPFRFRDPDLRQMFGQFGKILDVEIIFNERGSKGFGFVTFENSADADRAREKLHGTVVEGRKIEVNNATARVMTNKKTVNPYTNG

B1: AAUAAUU (DNA:RNA)
RNA: GGGAGACCGGAAUUCAGAUUGUCCAAUAAUUUUAAAUCCCGUCGUAGCCACCA
DNA 1: CAATCTGAATTCCGGTCTCCC
DNA 2: TGGTGGCTACGACGGGATT
B2: UUGCGAG (DNA:RNA)
RNA: GGGAGACCGGAAUUCAGAUUGUCCUUGCGAGUUAAAUCCCGUCGUAGCCACCA
DNA 1: CAATCTGAATTCCGGTCTCCC
DNA 2: TGGTGGCTACGACGGGATT
B3: CCGGAUG (DNA:RNA)
RNA: B1 RNA with A25C, A26C, U27G, A28G, U31G
DNA 1: CAATCTGAATTCCGGTCTCCC
DNA 2: TGGTGGCTACGACGGGATT
B4: CCGCAUU (DNA:RNA)
RNA: B1 RNA with A25C, A26C, U27G, A28C
DNA 1: CAATCTGAATTCCGGTCTCCC
DNA 2: TGGTGGCTACGACGGGATT
B5: GCUCUCU (DNA:RNA)
RNA: B1 RNA with A25G, A26C, A28C, A29U, U30C
DNA 1: CAATCTGAATTCCGGTCTCCC
DNA 2: TGGTGGCTACGACGGGATT
B6: AGGACGA (DNA:RNA)
RNA: B1 RNA with A26G, U27G, A29C, U30G, U31A
DNA 1: CAATCTGAATTCCGGTCTCCC
DNA 2: TGGTGGCTACGACGGGATT
B7: GUGUUAG (DNA:RNA)
RNA: B2 RNA with U25G, C28U, G29U
DNA 1: CAATCTGAATTCCGGTCTCCC
DNA 2: TGGTGGCTACGACGGGATT
B8: UCAAGCC (DNA:RNA)
RNA: B2 RNA with U26C, G27A, C28A, A30C, G31C
DNA 1: CAATCTGAATTCCGGTCTCCC
DNA 2: TGGTGGCTACGACGGGATT
B9: UCCUAUU (DNA:RNA)
RNA: B1 RNA with A25U, A26C, U27C, A28U
DNA 1: CAATCTGAATTCCGGTCTCCC
DNA 2: TGGTGGCTACGACGGGATT

Positions count from the first letter of the chain named. The list shows a part of the results.

The test deals with T1, RBFOX1 RRM. In words: EMSA; HiTS-Eq, 1 nM pool, 10 min; buffer printed only for the single-RNA assays: 10 mM Tris pH 7.5, 150 mM NaCl, 3.4 mM EDTA, 0.001% NP-40, 30 C. The following applies: tags: His6 N-terminal (pET28a); label: 5' 32P. In short, it runs like this: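 A pool of RNA with 7 randomized nucleotides, 5′-radiolabelled and with DNA-annealed flanks, was equilibrated at 1 nM for 10 min in 50 µL with purified RbFox RRM, wild type or mutant, across increasing protein concentrations. Free RNA was separated by 8% native PAGE, excised, reverse-transcribed, barcoded by PCR and sequenced. Relative association constants were obtained from read-count changes of each RNA species versus the control reaction and normalised to the cognate motif.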
A general note: In EMSA bound probe runs differently from free probe, usually more slowly.
In the case of B1, the binding signal is 0.00136 KA relative to UGCAUGU.
For B2, the binding signal is 0.0151 KA relative to UGCAUGU.
As to B3, the binding signal was 0.00955 KA relative to UGCAUGU.
Take B4: the binding signal is 0.0137 KA relative to UGCAUGU.
Turning to B5, the binding signal was 0.0104 KA relative to UGCAUGU.
Under B6 stands 0.0223 KA relative to UGCAUGU; under B7, 0.0132 KA relative to UGCAUGU; under B8, 0.00513 KA relative to UGCAUGU.
Consider B9, for which the binding signal was 0.00283 KA relative to UGCAUGU.
